Measurements reported in the supplement of paper PMC4967469.
A lower IC50 marks a more sensitive line; fits outside the tested doses are given as limits. AUC is the area under the same curve over the 256-fold range up to the top dose, as a fraction; it is 1 without any effect and falls as sensitivity rises. For some assays here: Where the top dose is marked as inferred, it was calculated from the reported fits.

Key:
Assay in all cases: Viability of human cancer cell lines after 72 h of drug (GDSC screen)
BMS-345541 = compound: Cc1ccc2nc(NCCN)c3ncc(C)n3c2c1 [BMS-345541]; conditions: top dose 16 µM
Protocol: (§1)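 Human cancer cell lines in 384-well plates, medium with 10% serum, drug for 72 h over a 256-fold dose range (nine 2-fold or five 4-fold steps up to the top dose). Adherent lines were fixed and stained with the nucleic acid dye Syto60, suspension lines read with resazurin; signal relative to control wells, capped at 0 and 100%. One two-parameter sigmoid per drug and line, fitted in a mixed model over all curves with the slope shared within a line.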

XAV 939 = compound: Oc1nc(-c2ccc(C(F)(F)F)cc2)nc2c1CSCC2 [XAV 939]; conditions: top dose 5 µM; top dose inferred
Protocol: as §1

AZD7762 = compound: NC(=O)Nc1cc(-c2cccc(F)c2)sc1C(=O)N[C@H]1CCCNC1 [AZD7762]; conditions: top dose 2 µM
Protocol: as §1

NPK76-II-72-1 = compound: COc1cc(C(=O)NC2CCN(C)CC2)ccc1Nc1ncc2c(n1)N(C1CCCC1)C(C)CC(=O)N2C [NPK76-II-72-1]; conditions: top dose 10.24 µM; top dose inferred
Protocol: as §1

Bexarotene = compound: C=C(c1ccc(C(=O)O)cc1)c1cc2c(cc1C)C(C)(C)CCC2(C)C [Bexarotene]; conditions: top dose 8 µM
Protocol: as §1

GSK-650394 = compound: O=C(O)c1ccc(-c2c[nH]c3ncc(-c4ccccc4)cc23)cc1C1CCCC1 [GSK-650394]; conditions: top dose 16 µM; top dose inferred
Protocol: as §1

YK 4-279 = compound: COc1ccc(C(=O)CC2(O)C(=O)Nc3c(Cl)ccc(Cl)c32)cc1 [YK 4-279]; conditions: top dose 10 µM
Protocol: as §1

M059J (glioma, adherent)
AUC (BMS-345541): 0.889 | IC50 (BMS-345541): > 16 µM | AUC (XAV 939): 0.974 | IC50 (XAV 939): > 5 µM | AUC (AZD7762): 0.822 | IC50 (AZD7762): 1290 nM | AUC (NPK76-II-72-1): 0.839 | IC50 (NPK76-II-72-1): 7.86 µM | AUC (Bexarotene): 0.978 | IC50 (Bexarotene): > 8 µM | AUC (GSK-650394): 0.916 | IC50 (GSK-650394): > 16 µM

MM1S (myeloma, suspension)
AUC (AZD7762): 0.669 | IC50 (AZD7762): 360 nM

MZ2-MEL (melanoma, adherent)
AUC (BMS-345541): 0.882 | IC50 (BMS-345541): > 16 µM | AUC (XAV 939): 0.967 | IC50 (XAV 939): > 5 µM | AUC (AZD7762): 0.876 | IC50 (AZD7762): > 2000 nM | AUC (NPK76-II-72-1): 0.957 | IC50 (NPK76-II-72-1): > 10.2 µM | AUC (Bexarotene): 0.897 | IC50 (Bexarotene): > 8 µM | AUC (GSK-650394): 0.762

NCI-H1650 (lung adenocarcinoma, adherent)
AUC (YK 4-279): 0.78 | IC50 (YK 4-279): 5.52 µM

NCI-H2122 (lung adenocarcinoma, adherent)
AUC (BMS-345541): 0.954 | IC50 (BMS-345541): > 16 µM | AUC (XAV 939): 0.732 | IC50 (XAV 939): 1.36 µM | AUC (AZD7762): 0.539 | IC50 (AZD7762): 159 nM | AUC (NPK76-II-72-1): 0.945 | IC50 (NPK76-II-72-1): > 10.2 µM | AUC (Bexarotene): 0.779 | IC50 (Bexarotene): 3.04 µM | AUC (GSK-650394): 0.656 | IC50 (GSK-650394): 2.63 µM

NCI-N87 (stomach, adherent)
AUC (XAV 939): 0.904 | IC50 (XAV 939): > 5 µM | AUC (AZD7762): 0.762 | IC50 (AZD7762): 1030 nM

OCI-LY7 (B-cell lymphoma, suspension)
AUC (AZD7762): 0.261 | IC50 (AZD7762): 32.9 nM

OV-7 (ovary, adherent)
AUC (BMS-345541): 0.833 | IC50 (BMS-345541): > 16 µM | AUC (AZD7762): 0.732 | IC50 (AZD7762): 823 nM | AUC (NPK76-II-72-1): 0.912 | IC50 (NPK76-II-72-1): > 10.2 µM

RCC-ER (kidney, adherent)
AUC (BMS-345541): 0.905 | IC50 (BMS-345541): > 16 µM | AUC (XAV 939): 0.933 | IC50 (XAV 939): > 5 µM | AUC (AZD7762): 0.587 | IC50 (AZD7762): 222 nM | AUC (NPK76-II-72-1): 0.986 | IC50 (NPK76-II-72-1): > 10.2 µM

RCC-FG2 (kidney, adherent)
AUC (BMS-345541): 0.905 | IC50 (BMS-345541): > 16 µM | AUC (XAV 939): 0.824 | IC50 (XAV 939): 4.13 µM | AUC (AZD7762): 0.715 | IC50 (AZD7762): 610 nM | AUC (NPK76-II-72-1): 0.944 | IC50 (NPK76-II-72-1): > 10.2 µM

RCC-JF (kidney, adherent)
AUC (BMS-345541): 0.856 | IC50 (BMS-345541): 15.5 µM | AUC (XAV 939): 0.94 | IC50 (XAV 939): > 5 µM | AUC (AZD7762): 0.553 | IC50 (AZD7762): 177 nM | AUC (NPK76-II-72-1): 0.917 | IC50 (NPK76-II-72-1): > 10.2 µM

RCC-MF (kidney, adherent)
AUC (BMS-345541): 0.806 | IC50 (BMS-345541): 11.2 µM | AUC (XAV 939): 0.909 | IC50 (XAV 939): > 5 µM | AUC (AZD7762): 0.594 | IC50 (AZD7762): 245 nM | AUC (NPK76-II-72-1): 0.936 | IC50 (NPK76-II-72-1): > 10.2 µM

RPMI-7951 (melanoma, adherent)
AUC (BMS-345541): 0.859 | IC50 (BMS-345541): 12.6 µM | AUC (XAV 939): 0.984 | IC50 (XAV 939): > 5 µM | AUC (AZD7762): 0.625 | IC50 (AZD7762): 273 nM | AUC (NPK76-II-72-1): 0.914 | IC50 (NPK76-II-72-1): > 10.2 µM | AUC (Bexarotene): 0.987 | IC50 (Bexarotene): > 8 µM | AUC (GSK-650394): 0.883 | IC50 (GSK-650394): > 16 µM

SJSA-1 (bone, adherent)
AUC (BMS-345541): 0.889 | IC50 (BMS-345541): > 16 µM | AUC (XAV 939): 0.979 | IC50 (XAV 939): > 5 µM | AUC (AZD7762): 0.678 | IC50 (AZD7762): 421 nM | AUC (NPK76-II-72-1): 0.911 | IC50 (NPK76-II-72-1): > 10.2 µM | AUC (Bexarotene): 0.923 | IC50 (Bexarotene): > 8 µM | AUC (GSK-650394): 0.832 | IC50 (GSK-650394): 12.1 µM

SK-MEL-28 (melanoma, adherent)
AUC (BMS-345541): 0.94 | IC50 (BMS-345541): > 16 µM | AUC (XAV 939): 0.985 | IC50 (XAV 939): > 5 µM | AUC (NPK76-II-72-1): 0.988 | IC50 (NPK76-II-72-1): > 10.2 µM | AUC (Bexarotene): 0.938 | IC50 (Bexarotene): > 8 µM | AUC (GSK-650394): 0.984 | IC50 (GSK-650394): > 16 µM

SK-N-AS (neuroblastoma, adherent)
AUC (BMS-345541): 0.833 | IC50 (BMS-345541): 12.6 µM | AUC (XAV 939): 0.982 | IC50 (XAV 939): > 5 µM | AUC (AZD7762): 0.627 | IC50 (AZD7762): 296 nM | AUC (NPK76-II-72-1): 0.981 | IC50 (NPK76-II-72-1): > 10.2 µM | AUC (Bexarotene): 0.983 | IC50 (Bexarotene): > 8 µM | AUC (GSK-650394): 0.982 | IC50 (GSK-650394): > 16 µM

SNU-175 (large intestine, suspension)
AUC (BMS-345541): 0.811 | IC50 (BMS-345541): 7.89 µM | AUC (NPK76-II-72-1): 0.809 | IC50 (NPK76-II-72-1): 4.94 µM

SNU-C2B (large intestine, adherent)
AUC (BMS-345541): 0.823 | IC50 (BMS-345541): 13.6 µM | AUC (XAV 939): 0.978 | IC50 (XAV 939): > 5 µM | AUC (AZD7762): 0.723 | IC50 (AZD7762): 665 nM | AUC (NPK76-II-72-1): 0.815 | IC50 (NPK76-II-72-1): 7.98 µM | AUC (Bexarotene): 0.923 | IC50 (Bexarotene): > 8 µM | AUC (GSK-650394): 0.916 | IC50 (GSK-650394): > 16 µM

TE-4 (oesophagus, adherent)
AUC (BMS-345541): 0.905 | IC50 (BMS-345541): > 16 µM | AUC (XAV 939): 0.931 | IC50 (XAV 939): > 5 µM | AUC (AZD7762): 0.521 | IC50 (AZD7762): 143 nM | AUC (NPK76-II-72-1): 0.976 | IC50 (NPK76-II-72-1): > 10.2 µM

TK10 (kidney, adherent)
AUC (BMS-345541): 0.902 | IC50 (BMS-345541): > 16 µM | AUC (XAV 939): 0.953 | IC50 (XAV 939): > 5 µM | AUC (AZD7762): 0.667 | IC50 (AZD7762): 405 nM | AUC (NPK76-II-72-1): 0.943 | IC50 (NPK76-II-72-1): > 10.2 µM | AUC (Bexarotene): 0.975 | IC50 (Bexarotene): > 8 µM | AUC (GSK-650394): 0.904 | IC50 (GSK-650394): > 16 µM

U-2-OS (osteosarcoma, adherent)
AUC (BMS-345541): 0.945 | IC50 (BMS-345541): > 16 µM | AUC (XAV 939): 0.964 | IC50 (XAV 939): > 5 µM | AUC (AZD7762): 0.553 | IC50 (AZD7762): 177 nM | AUC (NPK76-II-72-1): 0.983 | IC50 (NPK76-II-72-1): > 10.2 µM | AUC (Bexarotene): 0.955 | IC50 (Bexarotene): > 8 µM | AUC (GSK-650394): 0.979 | IC50 (GSK-650394): > 16 µM

YMB-1-E (breast, adherent)
AUC (BMS-345541): 0.923 | IC50 (BMS-345541): > 16 µM | AUC (NPK76-II-72-1): 0.967 | IC50 (NPK76-II-72-1): > 10.2 µM

ZR-75-30 (breast, adherent)
AUC (XAV 939): 0.981 | IC50 (XAV 939): > 5 µM | AUC (AZD7762): 0.946 | IC50 (AZD7762): > 2000 nM
